Paper PMC3234281
Positions count from the first letter of the chain named. No constants are given. Whether binding was seen depends on the method and setting. Some binding calls cover weakened binding; strength is not graded here. One block for each molecule: values may come before it.

Protein sequences, listed by entry. Tags and fused reporters are not part of them. Residues count along the entry.
UniProt P18852, residues 2-110: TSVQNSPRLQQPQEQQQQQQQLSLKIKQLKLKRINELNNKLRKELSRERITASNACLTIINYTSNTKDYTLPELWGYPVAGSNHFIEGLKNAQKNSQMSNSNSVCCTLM

Legend:
AKR1 (S. cerevisiae) [1] = target: T1, AKR1 (S. cerevisiae) (UniProt P39010); assay: two-hybrid; split-ubiquitin Dual membrane yeast-2-hybrid (Dualsystems Biotech), strain NMY51; AKR1 variants as bait in pBT3-STE or ankyrin repeats in pBT3-OST4, STE18 as prey in pPR3-N; growth on SD-LWHA + 1 mM 3-aminotriazole at 25°C, 48-60 hours
T1 sequence: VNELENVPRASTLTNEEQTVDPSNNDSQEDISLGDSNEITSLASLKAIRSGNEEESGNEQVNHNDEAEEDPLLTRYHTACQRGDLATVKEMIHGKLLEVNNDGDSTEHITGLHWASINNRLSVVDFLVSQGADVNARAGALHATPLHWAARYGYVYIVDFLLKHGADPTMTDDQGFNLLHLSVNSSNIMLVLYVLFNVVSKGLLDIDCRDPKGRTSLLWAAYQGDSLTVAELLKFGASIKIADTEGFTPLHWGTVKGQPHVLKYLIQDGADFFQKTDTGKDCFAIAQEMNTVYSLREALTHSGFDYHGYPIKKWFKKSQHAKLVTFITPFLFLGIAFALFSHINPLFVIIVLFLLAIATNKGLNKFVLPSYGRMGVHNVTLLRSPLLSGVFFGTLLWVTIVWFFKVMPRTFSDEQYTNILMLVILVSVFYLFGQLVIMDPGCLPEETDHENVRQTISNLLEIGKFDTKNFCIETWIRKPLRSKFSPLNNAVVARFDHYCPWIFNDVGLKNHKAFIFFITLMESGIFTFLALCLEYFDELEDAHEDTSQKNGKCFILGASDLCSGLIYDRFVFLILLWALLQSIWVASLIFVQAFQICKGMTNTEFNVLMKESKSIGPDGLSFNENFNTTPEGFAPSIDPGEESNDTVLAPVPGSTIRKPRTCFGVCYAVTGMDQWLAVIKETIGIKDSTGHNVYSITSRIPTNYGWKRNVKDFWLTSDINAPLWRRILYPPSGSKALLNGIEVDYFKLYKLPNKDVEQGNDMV

[2] = target: T2, AKR1 C^500S (S. cerevisiae) (UniProt P39010); assay: as above
T2 sequence: T1 sequence with C499S

[3] = target: T3, AKR1 ankyrin repeats (amino acids 2–311), anchored to the membrane (S. cerevisiae) (UniProt P39010); assay: as above
T3 sequence: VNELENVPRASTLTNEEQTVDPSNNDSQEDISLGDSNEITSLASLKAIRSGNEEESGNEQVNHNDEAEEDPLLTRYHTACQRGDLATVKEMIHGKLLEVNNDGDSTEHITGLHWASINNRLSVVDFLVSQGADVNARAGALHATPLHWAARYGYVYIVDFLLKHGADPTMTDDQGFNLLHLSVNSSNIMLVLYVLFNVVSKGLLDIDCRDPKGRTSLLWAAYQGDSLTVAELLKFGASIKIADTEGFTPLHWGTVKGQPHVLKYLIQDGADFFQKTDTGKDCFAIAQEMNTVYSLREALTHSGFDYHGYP

AKR1 ΔN (S. cerevisiae) [4] = target: T4, AKR1 ΔN (S. cerevisiae) (UniProt P39010); assay: as above
T4 sequence: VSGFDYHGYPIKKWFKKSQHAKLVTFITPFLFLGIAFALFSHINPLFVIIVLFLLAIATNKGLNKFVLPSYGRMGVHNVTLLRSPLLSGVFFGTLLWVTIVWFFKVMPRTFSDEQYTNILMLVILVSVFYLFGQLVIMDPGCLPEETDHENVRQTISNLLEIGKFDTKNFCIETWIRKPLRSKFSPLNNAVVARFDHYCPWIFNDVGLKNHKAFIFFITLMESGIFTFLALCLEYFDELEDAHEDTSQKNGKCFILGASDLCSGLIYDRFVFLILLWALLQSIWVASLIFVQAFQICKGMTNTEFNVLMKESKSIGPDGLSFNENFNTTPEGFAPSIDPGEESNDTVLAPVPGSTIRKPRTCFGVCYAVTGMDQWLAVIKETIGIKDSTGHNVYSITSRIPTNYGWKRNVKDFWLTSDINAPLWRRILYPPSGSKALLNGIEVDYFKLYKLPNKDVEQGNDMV

AKR1 (S. cerevisiae) [5] = target: T1, AKR1 (S. cerevisiae); assay: two-hybrid; split-ubiquitin Dual membrane yeast-2-hybrid, strain NMY51; AKR1 variants as bait in pBT3-STE against AKR1 variants as prey in pPR3-STE, pairwise; growth on -LWHA
[6] = target: T2, AKR1 C^500S (S. cerevisiae); assay: as above
AKR1 ΔN (S. cerevisiae) [7] = target: T4, AKR1 ΔN (S. cerevisiae); assay: as above

binding (AKR1 (S. cerevisiae) [1]): binds
binding [2]: binds
binding [3]: binds
binding (AKR1 ΔN (S. cerevisiae) [4]): no binding
Molecule: STE18 (from UniProt P18852 2-110)

binding (AKR1 (S. cerevisiae) [5]): no binding
B1: AKR1 (enzyme, UniProt P39010 2-764)
chain: T1 sequence

binding (AKR1 (S. cerevisiae) [5]): no binding
binding [6]: no binding
B2: AKR1 C^500S (enzyme, UniProt P39010 2-764)
chain: T1 sequence with C499S

binding (AKR1 (S. cerevisiae) [5]): no binding
binding [6]: no binding
binding (AKR1 ΔN (S. cerevisiae) [7]): no binding
B3: AKR1 ΔN (domain or fragment, UniProt P39010)
chain: T4 sequence
